Measurements taken from PubChem BioAssay AID485294 (National Center for Advancing Translational Sciences (NCATS), 2010).
Hit rate of the full screen: of about 370,000 compounds, about 150 (0.041%) were called active. The shares of active, inactive and inconclusive entries below differ from those in the screen. Calls come from the whole dose curve; as a rule, active = well fitted inhibition curve with a large enough effect; inconclusive = small, poorly fitted or top-dose-only effect; inactive = flat fitted curve, though single readings scatter. Potencies of inconclusive entries are left out as doubtful fits.

Target: Beta-lactamase (Escherichia coli (strain K12)) (UniProt P00811)
Assay: qHTS Inhibitors of AmpC Beta-Lactamase (assay with detergent); note: nearly all actives have a fitted effect of over 25% in size;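 for activity change, negative = inhibition: 0% = no-compound wells and -100% = no-enzyme wells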
Settings: AmpC hydrolysis of nitrocefin, absorbance 480 nm, 0.01% Triton; activity change, negative = inhibition: at 114 µM (top of the series)
Procedure, shortened: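 20 mM phosphate pH 7.0 + 0.01% (detergent screen) or 0.0001% Triton X-100; 5.3 nM AmpC reagent; cpd preinc 15 min RT; nitrocefin (800 uM stock) to start; A480 q20 s × 4 min; Activity was normalised to no-enzyme and no-compound control wells.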
Potency is the fitted concentration of half-maximal effect; tags give direction and shape of the fitted curve.

Sequence of UniProt P00811 (P00811 whole entry, looked up): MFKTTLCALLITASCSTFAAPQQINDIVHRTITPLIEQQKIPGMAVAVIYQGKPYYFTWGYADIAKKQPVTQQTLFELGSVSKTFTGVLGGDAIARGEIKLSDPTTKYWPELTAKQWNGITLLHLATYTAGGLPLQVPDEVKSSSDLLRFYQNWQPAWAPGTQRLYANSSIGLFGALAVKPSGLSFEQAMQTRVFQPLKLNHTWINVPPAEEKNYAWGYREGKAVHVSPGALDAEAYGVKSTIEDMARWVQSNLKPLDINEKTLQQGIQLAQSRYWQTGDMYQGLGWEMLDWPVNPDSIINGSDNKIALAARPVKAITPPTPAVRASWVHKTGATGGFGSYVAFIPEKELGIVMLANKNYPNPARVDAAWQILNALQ

| SMILES | activity change, negative = inhibition | Potency |
| --- | --- | --- |
| COc1ccc2sc(N(Cc3cccnc3)C(=O)CCc3ccccc3)nc2c1 | inactive: -2.06% |  |
| CCc1cccc(C)c1NC(=O)CNCc1ccccc1 |  | inconclusive [inhibitor, full curve, poor fit] |
| CCCN1CCCc2cc(CN(CCCN3CCOCC3)C(=O)Nc3ccc(Cl)c(Cl)c3)ccc21 | inactive: 10.4% |  |
| COc1cccc(Cn2c(=O)n(Cc3ccccc3)c(=O)c3c2c2cc(OC)ccc2n3C)c1 |  | inconclusive [inhibitor, single point] |
| CC1CCCCN1C(=O)COC(=O)CNC(=O)c1sc2ccccc2c1Cl (stereo unspecified) |  | inconclusive [inhibitor, full curve, poor fit] |
| COC(=O)Cn1ncc2c3ccccc3n(Cc3ccccc3)c2c1=O |  | inconclusive [inhibitor, partial curve] |
| CC(=O)Nc1ccc(-c2nnc(SCC(=O)NCc3ccco3)n2C)cc1 | inactive: -10% |  |
| CCOc1ccc(NS(=O)(=O)c2ccc(OCC(=O)N3CCCC3)cc2)cc1 |  | inconclusive [inhibitor, full curve, poor fit] |
| CC(=O)Nc1ccc(Cc2ccc3[nH]c(=O)cc(C)c3c2)cc1 |  | inconclusive [inhibitor, partial curve, poor fit] |
| Cc1ccc(NC(=S)NNC(=O)c2ccccc2O)c(C)c1 | inactive: 5.15% |  |
| COCC(=O)N1CCC(Oc2ccc(C(=O)NCCCC3CCCC3)cc2)CC1 | inactive: 5.33% |  |
| O=C(COc1ccc(-c2nnco2)cc1)Nc1c(Cl)cccc1C(F)(F)F |  | inconclusive [inhibitor, partial curve, poor fit] |
| COc1ccc2c(ccc[n+]2CC(=O)c2ccccc2)c1 | inactive: 0.172% |  |
| O=C(c1ccc2snnc2c1)N1CCCCC1 |  | inconclusive [inhibitor, partial curve] |
| CN1CCN(c2ccccc2NC(=O)c2ccc([N+](=O)[O-])o2)CC1 | inactive: -0.46% |  |
| CCCCN(C(=O)CCC(=O)Nc1cc(C)on1)C(C(=O)NC1CCCC1)c1ccc(F)cc1 (stereo unspecified) |  | inconclusive [inhibitor, full curve, poor fit] |
| c1ccc2[nH]c(CSc3nccs3)nc2c1 |  | inconclusive [inhibitor, full curve] |
| COc1ccccc1CNC(=O)C1CCN(S(=O)(=O)Cc2ccccc2)CC1 | inactive: 18.5% |  |
| COc1ccc(NC(=O)c2ccc(COc3ccccc3)o2)c(OC)c1 | inactive: -4.31% |  |
| O=C(CSCc1c(Cl)cccc1Cl)Nc1nccs1 |  | inconclusive [inhibitor, partial curve, poor fit] |
| COc1ccc(-c2csc(NC(=O)c3ccc(S(=O)(=O)N4CCc5ccccc5C4)cc3)n2)cc1 |  | inconclusive [inhibitor, full curve] |
| O=C(CN1C(=O)COc2ccccc21)N1CCCc2ccccc21 |  | inconclusive [inhibitor, full curve] |
| O=c1c2cccc3c(N4CCOCC4)ccc(c32)c2nc3ccccc3n12 | inactive: 4.74% |  |
| Cn1c(=O)c2c(nc(SCC(=O)NCc3ccc4c(c3)OCO4)n2Cc2ccccc2)n(C)c1=O |  | inconclusive [inhibitor, full curve, poor fit] |

| SMILES | activity change, negative = inhibition | Potency |
| --- | --- | --- |
| CCOc1ccc(NC(=O)CCSc2ccc3ccccc3n2)cc1 | inactive: -13% |  |
| CCCCC(=O)Nc1ccc(C(=O)Nc2ccc(OC)cc2[N+](=O)[O-])cc1 |  | inconclusive [inhibitor, single point] |
| Cc1cccc(C(=O)Nc2ccc(N3CCN(C(=O)c4ccco4)CC3)cc2)c1 |  | inconclusive [inhibitor, full curve, poor fit] |
| O=C1CSC(c2cn(-c3ccccc3)nc2-c2cc3ccccc3oc2=O)N1Cc1ccccc1 (stereo unspecified) | inactive: -3.31% |  |
| CCc1nc2nc(C)cc(Nc3cc(C)ccc3C)n2n1 | inactive: 15.4% |  |
| CN1CCc2c(sc3c2C(=O)NC(c2ccco2)N3)C1 (stereo unspecified) | inactive: -10.3% |  |
| CCCn1c(C(C)Nc2nc(-c3ccc(OC)cc3)cs2)nc2ccccc21 (stereo unspecified) |  | inconclusive [inhibitor, full curve, poor fit] |
| O=C(NCCc1ccc(Cl)cc1)c1ncn[nH]1 |  | inconclusive [inhibitor, full curve] |
| Fc1ccccc1-c1nc(-c2ccncc2)no1 |  | inconclusive [inhibitor, partial curve, poor fit] |
| CC(C)COc1ccc(C(=O)N(CC(=O)Nc2ccccc2C(F)(F)F)Cc2ccco2)cc1 |  | inconclusive [inhibitor, full curve] |
| CCOC(=O)C1=c2/c(=C/c3ccncc3)c(N)c(C(=O)OC)n2C(=O)C(c2ccncc2)S1 (stereo unspecified) |  | inconclusive [inhibitor, full curve, poor fit] |
| NS(=O)(=O)c1ccc(N/C=C\C(=O)c2ccc3ccccc3c2)cc1 |  | inconclusive [inhibitor, partial curve] |
| CS(=O)(=O)N1CCC(C(=O)Nc2ccc(OCc3ccccc3)cc2)CC1 |  | inconclusive [inhibitor, full curve, poor fit] |
| Cc1ccc(S[C@@H](CCN2CC[C@H](C(C)(C)C)CCC2=O)c2ccccc2)cc1 |  | inconclusive [inhibitor, partial curve, poor fit] |
| c1cncc(CNCc2ccco2)c1 |  | inconclusive [inhibitor, single point] |
| CC(C)c1cc(C(N)=O)c(NC(=O)C2CCC2)s1 |  | inconclusive [inhibitor, full curve, poor fit] |
| CN(CCCC(=O)Nc1ccc(Br)cc1F)S(=O)(=O)c1ccccc1 | inactive: -2.59% |  |
| CN(CCNS(=O)(=O)c1ccc2c(c1)oc(=O)n2C)Cc1ccccc1 |  | inconclusive [inhibitor, full curve] |
| COC(=O)c1ccc(NC(=O)c2ccc3nc(C)sc3c2)cc1 | inactive: 7.71% |  |
| Cc1ccc(-c2cc(N)n(-c3ccccc3)n2)cc1 |  | inconclusive [inhibitor, partial curve, poor fit] |
| O=C(NC1CCN(C(=O)Nc2ccccc2)CC1)C1CCCCC1 |  | inconclusive [inhibitor, full curve, poor fit] |
| COc1ccc(NC(=O)CN(C)C(=O)c2cccnc2Sc2ccc(C)c(C)c2)cc1 |  | inconclusive [inhibitor, full curve, poor fit] |
| COc1cc(OC)c(S(=O)(=O)NCc2ccco2)cc1S(=O)(=O)NCc1ccco1 |  | inconclusive [inhibitor, single point] |
| COCC(=O)Nc1nnc(COc2ccc(Cl)cc2)s1 |  | inconclusive [inhibitor, partial curve, poor fit] |

| SMILES | activity change, negative = inhibition | Potency |
| --- | --- | --- |
| COc1cc2c(cc1OC)C(C)N(C(=O)c1cc(C)on1)CC2 (stereo unspecified) |  | inconclusive [inhibitor, single point] |
| COc1ccccc1Nc1nc(-c2ccccc2)c(CC(=O)O)s1 | inactive: -4.97% |  |
| O=C(NCC1CCCO1)c1ccc(NC(=O)c2ccc([N+](=O)[O-])cc2)cc1 (stereo unspecified) |  | inconclusive [inhibitor, full curve, poor fit] |
| O=S(=O)(NCc1ccco1)c1ccc(Cl)cc1Cl |  | inconclusive [inhibitor, partial curve, poor fit] |
| COc1ccc(C(=O)CCc2ccccc2)cc1 |  | inconclusive [inhibitor, full curve, poor fit] |
| O=C(OCc1cc(Cl)ccc1OC(F)F)c1cncc(Br)c1 | inactive: -7.56% |  |
| CCCc1ccc(OCC(=O)Nc2sc3c(c2C(=O)OCC)CCC(C(C)(C)C)C3)cc1 (stereo unspecified) | inactive: 1.18% |  |
| CC(C)C(NC(=O)OCc1ccccc1)C(=O)OCC(=O)N1CCCCC1 (stereo unspecified) |  | inconclusive [inhibitor, full curve, poor fit] |
| CC(=O)Nc1ccc(Nc2ccc3cc(S(=O)(=O)N4CCCCC4)ccc3n2)cc1 | inactive: 2.22% |  |
| O=C(Nc1ccccc1C(F)(F)F)N1CCCCCC1 | inactive: -0.67% |  |
| COc1cccc(NC(=O)Cn2nnc(-c3ccccc3N)n2)c1 |  | inconclusive [inhibitor, full curve, poor fit] |
| COc1cc(-c2n[nH]c(=S)n2-c2ccc(Br)cc2)cc(OC)c1OC | inactive: -13% |  |
| Cc1ccccc1-c1nc(-c2ccccn2)no1 | inactive: 2.09% |  |
| COc1cc(CNC(=O)c2cnc3c(-c4cccc(C)c4)c(C)nn3c2C)cc(OC)c1OC | inactive: -2.06% |  |
| COc1ccc(CNc2nc(-c3cccnc3)nn2C(=O)C(C)C)cc1 |  | inconclusive [inhibitor, single point] |
| COc1ccc(-c2cc3ccc(O)c(CN4CCN(C)CC4)c3oc2=O)cc1OC | inactive: -0.889% |  |
| O=C(NCC(O)c1ccccc1)c1cccs1 (stereo unspecified) | inactive: -17.6% |  |
| Cc1ccc(S(=O)(=O)N(C)c2ccc(OCC(=O)Nc3nc4c(ccc5ccccc54)s3)cc2)cc1 |  | inconclusive [inhibitor, partial curve, poor fit] |
| CC(CN1CCCCC1)OC(=O)c1cccc(F)c1 (stereo unspecified) |  | inconclusive [inhibitor, full curve, poor fit] |
| OC(CNCC1CCCO1)Cn1c2ccccc2c2ccccc21 (stereo unspecified) |  | inconclusive [inhibitor, partial curve, poor fit] |
| O=C(Nc1nc2ccccc2[nH]1)c1ccc(F)cc1 |  | inconclusive [inhibitor, single point] |
| CCOC(=O)CC(=O)CSc1nc2ccc(C)cc2cc1C#N |  | inconclusive [inhibitor, full curve, poor fit] |
| CCOC(=O)c1cnc(-n2nc(C)cc2C)nc1N(CC)CC |  | inconclusive [inhibitor, single point] |
